According to PMC12434519 (ACS Medicinal Chemistry Letters, 2025):
“And” between values parts separate entries of the source, which are not always exact repeats. Equal values may be shown once. Read-outs that look alike come from different tables or passages of the source.

Columns and labels:
SARS-CoV-2 NSP14 [1] = biological target: T1, SARS-CoV-2 NSP14 (Severe acute respiratory syndrome coronavirus 2, UniProt P0DTD1); test: biochemical; conditions: for NSP14 SARS COV2 : Hill slope: Sheet2
SARS-CoV-2 NSP14 [2] = biological target: T1, SARS-CoV-2 NSP14; conditions: for TM Replicate 1 (ºC) (NSP14+SAH+cmpd): NSP14+SAH 47; for TM Replicate 1 (ºC) (NSP14+SAH+cmpd) / TM (ºC) (NSP14+compound): SBVS hits; for TM (ºC) (NSP14+compound): NSP14 alone 43; for TM of NSP14 + SAH + compound (ternary complex) / TM of NSP14 + compound (absence of SAH): n = 3; for ∆TM (°C) / Average Tm NSP14 (ºC) + compound + SAH: HTS hits; for Average Tm NSP14 (ºC) + compound + SAH: NSP14 + SAH 48.0
[3] = LUM % inhibition, read-out: SARS-CoV-2 NSP14 inhibition: IC50
[4] = LUM % inhibition, read-out: SARS-CoV-2 NSP14 inhibition: Maximum response
[5] = fit of concentration-response curve
[6] = n = 3, read-out: IC50 for the inhibition of SARS-CoV-2 NSP14 (95% CI)
[7] = 0.75 h, read-out: NSP14 SARS COV2 : Maximum measured (%)
[8] = Sheet1, NSP14+SAH+compound vs NSP14+SAH
[9] = HTS hits, Suppl. Table 3 Sheet1, read-out: IC50

Compound	IC50 (SARS-CoV-2 NSP14 [1]; [3]) [µM]	Emax (SARS-CoV-2 NSP14 [1]; [4]) [%]	SARS-CoV-2 NSP14 inhibition: Hill slope (SARS-CoV-2 NSP14 [1]; SBVS hits)	SARS-CoV-2 NSP14 inhibition: Hill slope (SARS-CoV-2 NSP14 [1]; [5])	IC50 (SARS-CoV-2 NSP14 [1]; [6])	TM Replicate 1 (ºC) (NSP14+SAH+cmpd) (SARS-CoV-2 NSP14 [2])	TM (ºC) (NSP14+compound) (SARS-CoV-2 NSP14 [2])	TM of NSP14 + SAH + compound (ternary complex) (SARS-CoV-2 NSP14 [2]; DSF, NSP14 + SAH 47.3 °C)	TM of NSP14 + compound (absence of SAH) (SARS-CoV-2 NSP14 [2]; DSF, NSP14 alone […]) [°C]	other results
Cc1cc(C)c(C(=O)NCc2ccc(CNC(=O)c3ccc(O)c(C)c3)cc2)cn1 [RU-0834181, CC1=CC(C(=O)NCC2=CC=C(CNC(=O)C3=CN=C(C)C=C3C)C=C2)=CC=C1O]	4.74	87.6	1.04	1.04	4.7 µM	48 ºC	43 ºC			
Cc1cc(S(=O)(=O)c2cc(C(=O)NCc3c(F)ccc4cnn(C5CC5)c34)n(C)c2C)cc2cn[nH]c12 [TDI-016037]										IC50 (SARS-CoV-2 NSP14 [1]; Inhibition of SARS-CoV-2 NSP14: IC50, Figure 1b, n = 3): ≤ 0.00015 µM; TM of NSP14 + SAH + compound (ternary complex) (SARS-CoV-2 NSP14 [2]): 69.8 °C; TM of NSP14 + compound (absence of SAH) (SARS-CoV-2 NSP14 [2]): 44.7 °C
Cc1ccc(C)c(C(=O)NCC2CCC3(CN(C(=O)c4cc(C)c(O)c(C)c4)C3)O2)c1C (stereo not drawn) [RU-0834178, CC1=CC(C(=O)N2CC3(C2)CCC(CNC(=O)C2=C(C)C=CC(C)=C2C)O3)=CC(C)=C1O]						49 ºC	43 ºC	49.3 ± 0.3 °C	42.7 ± 0.6	
Cc1c(S(=O)(=O)N2CCc3[nH]ncc3C2)cc(C(=O)NCc2c(F)ccc3occc23)n1C [TDI-015051]										TM of NSP14 + SAH + compound (ternary complex) (SARS-CoV-2 NSP14 [2]): 64.8 °C; TM of NSP14 + compound (absence of SAH) (SARS-CoV-2 NSP14 [2]): did not increase
O=C(Cn1cccc(-c2nc(-c3ccccc3)no2)c1=O)Nc1ccc(F)cc1F [RU-0833868, Fc1c(NC(=O)CN2C=CC=C(c3nc(c4ccccc4)no3)C2=O)ccc(F)c1]	9.36	93.9	2.93	2.93	≤ 10 µM	46.5 ºC	43 ºC			
Cc1cc(C(=O)NCc2ccc(C(=O)NC(C)c3ccccc3C)nc2)ccc1O (stereo not drawn) [RU-0834146, CC1=CC(C(=O)NCC2=CN=C(C(=O)NC(C)C3=C(C)C=CC=C3)C=C2)=CC=C1O]	5.76	85.4	1.13	1.13	5.8 µM	48 ºC	43 ºC	48.3 ± 0.3 °C and 48.3 °C	42.7 ± 0.3	
Cc1cc(OCC(=O)N[C@@H](Cc2ccccc2)C(=O)O)c2c3c(c(=O)oc2c1)CCCC3 [RU-0349688, CC1=CC(OCC(=O)N[C@@H](CC2=CC=CC=C2)C(O)=O)=C2C3=C(CCCC3)C(=O)OC2=C1]										Emax (SARS-CoV-2 NSP14 [1]; [7]): 86.6%; NSP14 SARS COV2 : Hill slope (SARS-CoV-2 NSP14 [1]; HTS hits): 0.97; IC50 (SARS-CoV-2 NSP14 [1]; IC50 (µM), HTS hits, Suppl. Table 3 Sheet1): 8.79 µM; ∆TM (°C) (SARS-CoV-2 NSP14 [2]; [8]): 2.0 °C; ∆TM (°C) (SARS-CoV-2 NSP14 [2]; Sheet2, compound + SAH vs SAH): 2.0 °C; Average Tm NSP14 (ºC) + compound + SAH (SARS-CoV-2 NSP14 [2]): 50.0 ºC
Cc1cccc(C(=O)NCC2CCC3(CN(C(=O)c4cc(C)c5[nH]ncc5c4)C3)O2)c1F (stereo not drawn) [RU-0834174, CC1=CC(C(=O)N2CC3(C2)CCC(CNC(=O)C2=CC=CC(C)=C2F)O3)=CC2=C1NN=C2]	6.1	81.8	1.1	1.1		48 ºC	43 ºC			
Cc1cnc(C(=O)NCc2ccc(CNC(=O)c3ccc(O)c(C)c3)cc2)c(C)c1 [RU-0834201, CC1=CC(C)=C(C(=O)NCC2=CC=C(CNC(=O)C3=CC=C(O)C(C)=C3)C=C2)N=C1]	3.01	92.9	1.22	1.22	3 µM	49 ºC	43 ºC	49.0 ± 0.0 °C and 49.0 °C	42.5 ± 0.5	
CC1(c2csc(Nc3ccccc3Cl)n2)CCC(=O)O1 (stereo not drawn) [RU-0325359, CC1(C2=CSC(NC3=CC=CC=C3Cl)=N2)CCC(=O)O1]										Emax (SARS-CoV-2 NSP14 [1]; [7]): 95.6%; NSP14 SARS COV2 : Hill slope (SARS-CoV-2 NSP14 [1]; HTS hits): 0.797; IC50 (SARS-CoV-2 NSP14 [1]; [9]): 3.73 µM; IC50 (SARS-CoV-2 NSP14 [1]; HTS hits, Suppl. Table 3 Sheet2, read-out: NSP14 SARS COV2 : IC50): 4.7 µM; ∆TM (°C) (SARS-CoV-2 NSP14 [2]; [8]): 2.5 °C; ∆TM (°C) (SARS-CoV-2 NSP14 [2]; Sheet2, compound + SAH vs SAH): 2.5 °C; Average Tm NSP14 (ºC) + compound + SAH (SARS-CoV-2 NSP14 [2]): 50.5 ºC
Cc1ccc(NC(=O)Cn2nnc3ccccc3c2=O)cc1S(=O)(=O)N1CCCCC1 [RU-0833928, S(=O)(=O)(N1CCCCC1)c1c(C)ccc(NC(=O)CN2N=Nc3c(cccc3)C2=O)c1]	9.13	61.5	1.47	1.47	≤ 10 µM and 9.1 µM	48 ºC	43 ºC	48.3 ± 0.3 °C and 48.3 °C	42.7 ± 0.6	
CN(C)c1ccc(N2C(=O)CSC2c2cccc(NC(=O)Cc3cccs3)c2)cc1 (stereo not drawn) [RU-0054512, N(C(CC1=CC=CS1)=O)C1=CC=CC(C2SCC(=O)N2C2=CC=C(N(C)C)C=C2)=C1]										Emax (SARS-CoV-2 NSP14 [1]; [7]): 83.6%; NSP14 SARS COV2 : Hill slope (SARS-CoV-2 NSP14 [1]; HTS hits): 1; IC50 (SARS-CoV-2 NSP14 [1]; [9]): 5.46 µM; ∆TM (°C) (SARS-CoV-2 NSP14 [2]; [8]): 1.5 °C; ∆TM (°C) (SARS-CoV-2 NSP14 [2]; Sheet2, compound + SAH vs SAH): 1.5 °C; Average Tm NSP14 (ºC) + compound + SAH (SARS-CoV-2 NSP14 [2]): 49.5 ºC
